According to article PMC7819943, “Rice protein-binding microarrays: a tool to detect cis-acting elements near promoter regions in rice”:
Some of the results follow.

These sequences were tested against T1, OsWOX13 (Oryza sativa, UniProt Q5QMM3 1-267) (assay: protein-binding microarray (RPBM); PBS, 2% BSA, 51.3 ng/ul salmon testes DNA, 50 uM zinc acetate, 200 nM TF, 25 C, 1 h; high values mean tight binding). Details: protein: recombinant; tags: N-terminal polyhistidine and DsRed monomer fusion (pET32a); label: CyDye5-dUTP incorporated in the synthesized complementary strand; 3' TTTTT single-stranded linker to array surface; dsDNA, one strand shown.
T1 sequence: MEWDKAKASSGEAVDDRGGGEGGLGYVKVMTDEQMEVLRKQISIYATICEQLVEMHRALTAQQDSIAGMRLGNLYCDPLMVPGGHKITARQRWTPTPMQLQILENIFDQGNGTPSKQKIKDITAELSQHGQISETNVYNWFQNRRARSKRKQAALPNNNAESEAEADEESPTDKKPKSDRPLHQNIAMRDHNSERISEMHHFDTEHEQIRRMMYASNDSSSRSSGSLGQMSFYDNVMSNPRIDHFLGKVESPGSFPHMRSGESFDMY
Method in brief: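 Binding signal here means per-feature fluorescence intensity in arbitrary units. The values were read on an Axon 4000B scanner after a custom Agilent array, double-stranded by primer extension with Cy5-dUTP, was incubated with 200 nM protein at 25 °C for 1 h in PBS with 2% BSA, salmon testes DNA and 50 µM zinc acetate, then washed. The proteins were transcription factors with an N-terminal polyhistidine tag and DsRed, expressed in E. coli BL21-CodonPlus and purified on Ni–NTA.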

Sequence | binding signal
TAGCAAATATTAATTATAAGATTGGAAATTCCATCTAAATCGGAGTCACCTAGTGCAG | 5150 fluorescence intensity (a.u.)
TTTAATGTCTAAATTTAATAGTAGAGTCATACCTTCACCTCGGAGTCACCTAGTGCAG | 8730 fluorescence intensity (a.u.)
ATTGATTGATGCAGAATCCGGAAGTTGCTCACTTTGATTACGGAGTCACCTAGTGCAG | 48700 fluorescence intensity (a.u.)
CAAAATTAACACCAATCTCAGGAAGGTAATCCCAAATCCCCGGAGTCACCTAGTGCAG | 25100 fluorescence intensity (a.u.)
TTATTGTAACTAAATTTTGAACATATGATTTCTGCACGGACGGAGTCACCTAGTGCAG | 8270 fluorescence intensity (a.u.)
TGGCTAGGAACGTAATTGTGATTATTGGACAGGACTTAATCGGAGTCACCTAGTGCAG | 6060 fluorescence intensity (a.u.)
ATAACTAATCTAATAGCTCATTTATACAATAATTACATACCGGAGTCACCTAGTGCAG | 6310 fluorescence intensity (a.u.)
ACTCAATCAGAGTTCAGACATACTCCGTAACTGAGAAGAGCGGAGTCACCTAGTGCAG | 22000 fluorescence intensity (a.u.)
TCTCGATTGCCATCTGTTAACGAAGCTATCGTTGTACCCACGGAGTCACCTAGTGCAG | 7460 fluorescence intensity (a.u.)
TGGACTCACAATCAATTACGGCCCGGCCCAGTAGATACCACGGAGTCACCTAGTGCAG | 16000 fluorescence intensity (a.u.)
TAACTTGCAATTACAATCAGTTACACAACACTTGTACAGACGGAGTCACCTAGTGCAG | 14000 fluorescence intensity (a.u.)
GTGTTGACAGGATCTCCCCAGCCACAACAACACGAACCCCCGGAGTCACCTAGTGCAG | 11100 fluorescence intensity (a.u.)
TATATAAATTTACGTATGAAATGCACTGTATGAAATGCACCGGAGTCACCTAGTGCAG | 9180 fluorescence intensity (a.u.)
TTTTCCTAATCAAACTTTTAACCCAAATATATAGTAACATCGGAGTCACCTAGTGCAG | 3490 fluorescence intensity (a.u.)
GAAGACAAAATTTGGAAAATGGAACTGCGCTCGGAAACATCGGAGTCACCTAGTGCAG | 3550 fluorescence intensity (a.u.)
TCCACAATTTGCTAATCATATTTCTGTTGATAATGATAATCGGAGTCACCTAGTGCAG | 7820 fluorescence intensity (a.u.)
GTTGATTACTTCGTCCGTACTGCACCCCTATCATTTGGACCGGAGTCACCTAGTGCAG | 39600 fluorescence intensity (a.u.)
CATATGATGATTATTTGGATCATTTTAGCTAGAATCTCTGCGGAGTCACCTAGTGCAG | 27700 fluorescence intensity (a.u.)
ACCAATCACAACCATTCTTCTTCACTTACTTTCTCTTTTCCGGAGTCACCTAGTGCAG | 6630 fluorescence intensity (a.u.)
CGAAACTTTGGACACATGCATAAAGCATTAAATATAGATACGGAGTCACCTAGTGCAG | 3880 fluorescence intensity (a.u.)
CCAACCAATCACAACCCTTCACCATTCACTTTTCCTACCTCGGAGTCACCTAGTGCAG | 17400 fluorescence intensity (a.u.)

Sequence | binding signal
GGTAGTAATTGATAGTGGGATTAACGCGAGAATTTAATTTCGGAGTCACCTAGTGCAG | 31500 fluorescence intensity (a.u.)
ATAATTAATATATTGGCTCGAAAGCTAGCTTATACTAGCCCGGAGTCACCTAGTGCAG | 18300 fluorescence intensity (a.u.)
TTAGATAATTTTGTATGAGTGTTAGCCGTCCACTTGCGCGCGGAGTCACCTAGTGCAG | 10500 fluorescence intensity (a.u.)
TGTAAATATATTTTAAAGAGATAAATGAGAAGAAAGAAGGCGGAGTCACCTAGTGCAG | 3170 fluorescence intensity (a.u.)
ACCAAAATTAAAAGTTTGAATAAATTACAACGATGTGATGCGGAGTCACCTAGTGCAG | 5230 fluorescence intensity (a.u.)
TGTTCATTCTTAGCATAATTGAAGTTTGTGGCTTTTATAACGGAGTCACCTAGTGCAG | 4050 fluorescence intensity (a.u.)
ATAAATTGATGCCCAATTTTCGAAGATGCTCATAGGGGTGCGGAGTCACCTAGTGCAG | 52500 fluorescence intensity (a.u.)
GTGGTTGTATTAAATATATTGATAGTTAGGTATATGAATACGGAGTCACCTAGTGCAG | 4110 fluorescence intensity (a.u.)
TAAACAGATAAGAAGATTTTGCTTGGGTTATCTGTGAGGGCGGAGTCACCTAGTGCAG | 3720 fluorescence intensity (a.u.)
TTTGTTGAAATTATATCATTTCCGTTGTCATTTCCCACAACGGAGTCACCTAGTGCAG | 3170 fluorescence intensity (a.u.)
AACAAAATTATAACCATAAATTTAAATGTGAATATTCCAACGGAGTCACCTAGTGCAG | 5380 fluorescence intensity (a.u.)
TTATTAATTGTTACATTTTCTTTGTTTATATATACGCACACGGAGTCACCTAGTGCAG | 19000 fluorescence intensity (a.u.)
GCAAATATTTAATTAATCACACGTTAATGTACTGCTTCGTCGGAGTCACCTAGTGCAG | 16900 fluorescence intensity (a.u.)
TAAATTTGTCAATTGGGACCTCCAGAAAATTTGGTTGGTACGGAGTCACCTAGTGCAG | 5590 fluorescence intensity (a.u.)
TCATCAATAAACTACTCCTTTGATGATCTCCCCACGTTGGCGGAGTCACCTAGTGCAG | 3220 fluorescence intensity (a.u.)
AAGAGTACTTATTGATGATCACAATACTAACAGAGCCTTTCGGAGTCACCTAGTGCAG | 3910 fluorescence intensity (a.u.)
AATAATTAAACACCTTAGGTGGTATTTGTTTATACTGTAGCGGAGTCACCTAGTGCAG | 12000 fluorescence intensity (a.u.)
ACCATGATTTGATAATATGGTGCTACAGTAAACATTGGCTCGGAGTCACCTAGTGCAG | 27400 fluorescence intensity (a.u.)
CCGCTCAAATTACGCGTCTCCTCATCCCCGGCCGCGCGCCCGGAGTCACCTAGTGCAG | 3250 fluorescence intensity (a.u.)
CCATGATTTTGATGGCCGACTGTCCCACAGGTAGGATACGCGGAGTCACCTAGTGCAG | 23800 fluorescence intensity (a.u.)
GATGATGGATTGGAAAGGCAAGTAAGCTGGAGTAGGTGGTCGGAGTCACCTAGTGCAG | 38000 fluorescence intensity (a.u.)
